# The whole screen tested about 52,000 compounds, of which about 1,700 (3.3%) were called active. No stated cut-off is given here; in the data, active means survival mostly below about 52% (no sharp cut-off); inactive means mostly above about 56%. The list shows a part of the results.
# Test system: Wild type
# Test: S. aureus survival, RN4220 and DeltatarO strains – OD600, teichoic acid synthesis inhibitors, primary screen (AID 463173)
# Conditions: S. aureus RN4220 wild type/DeltatarO growth, OD600, 18 h, stronger effect = lower value, screened at 18.75 µg/mL (by protocol)
row,SMILES,survival
1,CCN(CC)C(=O)c1c(NC(=O)c2ccccc2F)sc2c1CCC(C(C)(C)C)C2 (configuration not stated),active: -3%
2,CCc1ccc(-c2nn(-c3ccc(OC)cc3)c3c2cnc2ccc(OC)cc23)cc1,active: 9%
3,Cc1cc(C)c(NC(=O)c2cc(C)nc3c2c(C)nn3-c2cccc(F)c2)c(C)c1,inactive: 83%
4,Cc1cc2oc(C(=O)N(Cc3ccc(Cl)cc3)Cc3ccco3)c(C)c2cc1Cl,inactive: 91%
5,CCCn1c(=O)sc2cc(NC(=O)c3ccccc3Cl)ccc21,inactive: 71%
6,COc1cc(NC(=O)CCn2nc(C)cc2C)cc(OC)c1OC,inactive: 70%
7,Cc1nn(-c2ccccc2)c2[nH]c(=O)c(CNc3ccccc3)cc12,inactive: 111%
8,O=C(CSc1nccn1Cc1ccc2c(c1)OCO2)Nc1ccccc1F,inactive: 89%
9,COc1cccc(N2CCN(C(=O)c3cccn3-c3nnc(N4CCCCC4)s3)CC2)c1,inactive: 94%
10,CCC1CCCCN1CCCNC(=O)c1cn(C)c2ccc(S(=O)(=O)N(C)C3CCCCC3)cc2c1=O (configuration not stated),inactive: 86%
11,Cc1ccc(-c2noc(CNC(C)C)n2)cc1,inactive: 104%
12,COc1ccc(-c2cc(C(=O)Nc3ccc4c(c3)OCO4)no2)cc1,inactive: 88%
13,COc1cc(/C=C(/C#N)c2nc(-c3cc4ccccc4oc3=O)cs2)ccc1O,inactive: 120%
14,COc1cccc(C=Nc2cccc3c(=O)[nH][nH]c(=O)c23)c1O,inactive: 104%
15,CC1CCCCN1C(=O)CSc1nc(-c2ccccc2)no1 (configuration not stated),inactive: 73%
16,Cc1cccc(NC(=O)CSc2nc3c([nH]c4ccccc43)c(=O)n2-c2cc(C)cc(C)c2)c1,inactive: 73%
17,Cc1c(Cl)cccc1NC(=O)Nc1c[nH]c(=O)[nH]c1=O,inactive: 72%
18,COc1cc(OC)cc(C(=O)Nc2nc(-c3nnn(-c4ccc(C)cc4)c3C)ns2)c1,inactive: 133%
19,CCn1c(O)c(C=Nc2cccc(O)c2)sc1=S,inactive: 115%
20,CCOC(=O)C1=C(CN2CCC(C)CC2)NC(=O)NC1c1ccc(OC(C)C)cc1 (configuration not stated),inactive: 78%
21,O=C(Cc1ccccc1)NC1CCS(=O)(=O)C1 (configuration not stated),inactive: 96%
22,CSc1cccc(-n2nnc(-c3nsc(NC(=O)c4cccs4)n3)c2C)c1,inactive: 80%
23,COc1ccc(Br)cc1CNC(=O)Cn1nc(C)n2c(cc3cc(F)ccc32)c1=O,inactive: 75%

row,SMILES,survival
1,CCOC(=O)c1ccccc1NC(=O)CSc1nc(=O)[nH]c2c1CCCC2,inactive: 68%
2,COc1ccc(NC(=O)c2ccco2)cc1NC(=O)c1cc2ccccc2o1,inactive: 123%
3,CC(OC(=O)c1ccco1)C(=O)NC1CCCC1 (configuration not stated),inactive: 110%
4,COc1ccc(-n2c(C)nc3c(cnn3-c3ccc(C)c(C)c3)c2=O)cc1Cl,inactive: 118%
5,CCS(=O)(=O)N1CCCc2cc(C(=O)Nc3cc([N+](=O)[O-])ccc3C)ccc21,inactive: 81%
6,Cc1ccc(NC(=O)CN2C(=O)C(c3ccccc3)=NC23CCCCC3)cc1C,inactive: 89%
7,CCc1ccc2occ(CC(=O)N(Cc3ccccc3)C3CCS(=O)(=O)C3)c2c1 (configuration not stated),inactive: 77%
8,Cc1nc2ccccc2n1C1CCN(C(=O)NC2CCCCC2)CC1,inactive: 129%
9,CCN(CC)CCCNC(=O)c1cn(CC)c2ccc(S(=O)(=O)N3CCC(C)CC3)cc2c1=O,inactive: 91%
10,Cc1cc(=O)n(CC(=O)N2CCCCC2)c2c1c(C)nn2C,inactive: 83%
11,COc1ccc(Nc2nc3c(S(=O)(=O)c4ccccc4)nnn3c3ccc(Cl)cc23)cc1,inactive: 133%
12,COc1cccc(CNC(=O)Cn2c(=O)ccc3cc(S(=O)(=O)N4CCCC4)ccc32)c1,inactive: 73%
13,CCc1ccc(S(=O)(=O)c2nnn3c2nc(N(C)Cc2ccccc2)c2cc(Cl)ccc23)cc1,inactive: 94%
14,CN(C1CCCCC1)S(=O)(=O)c1ccc2c(c1)c(=O)c(C(=O)N1CCN(c3ccccc3)CC1)cn2C,inactive: 82%
15,O=C(O)c1ccc(NC(=O)c2ccc(Cl)c(S(=O)(=O)N3CCCCCC3)c2)cc1,inactive: 137%
16,COC(=O)c1ccc(NC(=O)C(C)Sc2nc(=O)cc(N)n2CCc2ccccc2)cc1 (configuration not stated),inactive: 124%
17,CCC(=O)Nn1cnc2c(c1=O)C1(CCCCC1)Cc1ccccc1-2,inactive: 113%
18,O=S(=O)(NCCS(=O)(=O)N1CCN(c2ccccc2)CC1)c1ccccc1,inactive: 81%
19,Cc1nc2c3ccccc3nc(NNC(=O)CCC(=O)O)n2n1,inactive: 83%
20,COc1ccc(CCNC(=O)c2ccc3c(c2)nc(C)n3-c2ccc(Br)cc2)cc1OC,inactive: 53%
21,Cc1ccc(NC(=O)CN2C(=O)CCSc3ccccc32)c(C)c1,inactive: 74%
22,O=C(Nc1ccc(Cl)cc1Cl)c1cc(S(=O)(=O)NCc2ccc3c(c2)OCO3)ccc1F,inactive: 87%
23,Cc1ccc(Cn2c(CO)cnc2SCc2ccc(F)cc2)cc1,inactive: 120%

row,SMILES,survival
1,Cn1c(=O)c2c(nc3n2Cc2c(Cl)cccc2N3CCNC(=O)C2CCC2)n(C)c1=O,inactive: 109%
2,Cc1ccccc1NC(=O)c1cc2c([nH]c1=O)CC(C)(C)CC2=O,inactive: 65%
3,N#CC1=C(N)OC2=C(C(=O)CCC2)C1c1ccoc1 (configuration not stated),inactive: 106%
4,COc1ccc(-c2cc(C(=O)Nc3cc(C(F)(F)F)ccc3Cl)no2)cc1,inactive: 87%
5,COc1ccccc1Cn1cc(C(=O)c2ccccc2)c(=O)c2cc(OC)c(OC)cc21,active: 10%
6,Cc1nn(CCC(=O)Nc2ccc(Cl)cc2)c(C)c1S(=O)(=O)N1CCCCC1,inactive: 124%
7,CN(C)c1ccc(CNC(=O)C2CCN(c3nnc(-n4cccc4)s3)CC2)cc1,inactive: 45%
8,CCOc1ccc(C(=O)Nc2ccc(-c3cc4ccccc4oc3=O)cc2)cc1Br,inactive: 75%
9,Cc1ccc(-n2ncc3c(=O)n(Cc4cccc(Cl)c4)cnc32)cc1C,inactive: 88%
10,Cc1ccc(CSc2nc3cccnc3n2Cc2ccc(C(=O)NC3CC3)cc2)cc1,inactive: 63%
11,O=C(NCc1ccccc1)c1cccn1-c1nnc(N2CCCCC2)s1,inactive: 79%
12,COc1cc(OC)c(NC(=O)C2=C(C)C(=O)OC23CCN(C(C)=O)CC3)cc1Cl,inactive: 63%
13,CCc1cccc(NC(=O)C2CCN(S(=O)(=O)c3ccc(Br)s3)CC2)c1,inactive: 66%
14,O=C1Nc2ccc(S(=O)(=O)Nc3ccccc3)c3cccc1c23,inactive: 106%
15,CCSc1nnc(C2CCCN(Cc3cccnc3)C2)n1C(C)C (configuration not stated),inactive: 121%
16,CCOc1ccccc1CNC(=O)c1cnn(-c2ccc(C)cc2)c1-n1cccc1,active: 10%
17,Cc1ccc(C)c(NC(=O)Nc2cc3c(cc2N2CCCCC2)n(C)c(=O)n3C)c1,inactive: 89%
18,COc1ccc(Cn2c(C(=O)O)c(CNCc3ccco3)c3ccc(C)cc32)cc1,inactive: 59%
19,Cc1ccc(NC(=O)Cn2cnc3c(oc4ccccc43)c2=O)cc1Cl,inactive: 88%
20,COc1ccc(NC(=O)CCCOc2cc(=O)n(C)c3ccccc23)c(OC)c1,inactive: 155%
21,COCCNC(=O)CSc1c(C)cnc2c1c(=O)n(C)c(=O)n2C,inactive: 87%
22,CC1CCC(=O)C(C2(O)C(=O)Nc3ccccc32)C1 (configuration not stated),inactive: 110%
23,CCCn1c2ccccc2c2cnn(CC(=O)NCCc3ccc(S(N)(=O)=O)cc3)c(=O)c21,inactive: 134%

row,SMILES,survival
1,Cn1c(NCc2cccc(Cl)c2)nc2ccccc21,inactive: 106%
2,CCN(C(=O)c1ccc(C(=O)N(CC)c2ccccc2C)cc1)c1ccccc1C,inactive: 71%
3,CCOc1ccc(NC(=O)c2cc3cc4ccc(C)cc4nc3o2)cc1,inactive: 79%
4,C=Cc1ccc(CN2C(=O)N(c3ccc(C)c(C)c3)S(=O)(=O)c3ccccc32)cc1,inactive: 71%
5,COc1ccccc1C(=O)Nc1nnc(SCc2cc(=O)c3ccccc3[nH]2)s1,inactive: 72%
6,O=C(CSc1ncccn1)N1CCc2ccccc2C1,inactive: 100%
7,N#C/C(=C\c1cn(CC(=O)N2CCCC2)c2ccccc12)C(=O)NC1CC1,inactive: 103%
8,Cc1ccc(-n2c(=O)c3ccc(C(=O)NCc4ccco4)cc3n(Cc3ccccc3Cl)c2=O)cc1,inactive: 86%
9,CCOC(=O)c1c(-c2cccs2)csc1NC(C)=O,inactive: 102%
10,Brc1cccc(-c2nnn3c2nc(NC2CCCCC2)c2ccccc23)c1,inactive: 80%
11,Cc1nn(-c2ccc(N3CCOCC3)nn2)c(C)c1CCC(=O)NCc1ccc(Cl)cc1,inactive: 136%
12,O=C(COc1ccc(Cl)cc1)N1CCCCC1,inactive: 102%
13,CCS(=O)(=O)c1ncc(Cl)c(C(=O)Nc2ccc(S(=O)(=O)N(C)c3ccccc3)cc2)n1,active: 8%
14,CC1CCCCN1CCNC(=O)c1ccc(Cn2c(SCc3ccccc3)nc3cccnc32)cc1 (configuration not stated),inactive: 93%
15,Nc1n[nH]c(CCc2ccccc2)n1,inactive: 121%
16,CCN1CCN(C(C)C(=O)NC(c2ccccc2)c2ccccc2)CC1 (configuration not stated),inactive: 113%
17,COc1ccc2nc3sc(C(=O)NCCc4ccc(Cl)cc4)cc3cc2c1,inactive: 92%
18,Cn1c(=O)c2c(n3nnnc13)-c1ccccc1CC21CCCC1,inactive: 107%
19,Cc1cccc(C)c1Nc1sc(C(=O)c2ccccc2)c(N)c1S(=O)(=O)c1ccccc1,inactive: 90%
20,Cn1cc2ccc(N)cc2n1,inactive: 98%
21,Cc1ccc(CCNC(=O)c2cc(-c3ccccc3)n[nH]2)cc1,inactive: 73%
22,CCN(C(=O)c1sc2nc3n(c(=O)c2c1C)CCCC3)c1ccccc1F,inactive: 82%
23,CC(=O)c1ccc(NC(=O)CSc2nnc3ccc(-c4ccc(F)cc4)nn23)cc1,inactive: 68%
